Over roughly 33,000 sequences, “E-score (-0.5 to 0.5)” has its median near -0.054; the highest 2% begin near 0.35. This is one part of the list.

The assay concerns the target T1, Stb5 (UniProt P38699).
T1 sequence: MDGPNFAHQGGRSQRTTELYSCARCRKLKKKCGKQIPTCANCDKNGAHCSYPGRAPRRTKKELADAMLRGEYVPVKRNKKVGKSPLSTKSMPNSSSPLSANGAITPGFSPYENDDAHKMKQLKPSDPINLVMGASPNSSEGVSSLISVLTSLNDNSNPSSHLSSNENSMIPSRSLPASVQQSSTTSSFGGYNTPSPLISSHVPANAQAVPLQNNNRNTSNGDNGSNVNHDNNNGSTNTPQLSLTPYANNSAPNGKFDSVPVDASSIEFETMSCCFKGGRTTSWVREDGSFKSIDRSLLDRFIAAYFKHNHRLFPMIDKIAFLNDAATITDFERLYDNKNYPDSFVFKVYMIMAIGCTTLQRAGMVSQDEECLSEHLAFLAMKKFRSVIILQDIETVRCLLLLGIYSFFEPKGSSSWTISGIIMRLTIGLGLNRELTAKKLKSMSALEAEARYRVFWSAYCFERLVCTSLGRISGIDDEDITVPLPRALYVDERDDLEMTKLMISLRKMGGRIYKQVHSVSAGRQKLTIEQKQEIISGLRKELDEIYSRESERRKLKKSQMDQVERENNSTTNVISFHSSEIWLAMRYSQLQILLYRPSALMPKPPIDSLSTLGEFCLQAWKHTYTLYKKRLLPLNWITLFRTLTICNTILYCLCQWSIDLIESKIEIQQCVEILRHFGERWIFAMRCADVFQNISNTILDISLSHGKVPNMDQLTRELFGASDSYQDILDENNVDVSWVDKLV
The assay is described as follows: PBM E-score (8-mer binding enrichment) (E-score (-0.5 to 0.5)); higher = stronger / more preferred TF binding; most listed sequences are background and not binding sites. Conditions: protein concentration: 200 nM; construct: GST-full length. A digest of the protocol: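 Yeast transcription factors carrying a GST tag, as full-length proteins or DNA-binding domains, were produced by PURExpress in vitro transcription/translation. About 100-200 nM protein was applied to universal all-10-mer Agilent arrays, double-stranded by primer extension on fresh or once-stripped slides. Bound protein was detected with fluorescent anti-GST, and scans were normalised with masliner. The Universal PBM Analysis Suite gave each ungapped eight-base word, pooled with its reverse complement, an E-score, a modified Wilcoxon-Mann-Whitney statistic.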
For the sequence TCCTACGA, the “PBM E-score” value was -0.186.
Under AGTGGGGA stands 0.0889; under AAGCTCTC, -0.155.
Under AGTTACTC stands -0.0433; under ATATTTTG, 0.118.
Under ACTGTGTA stands -0.163.
With ACGCTATA, the “PBM E-score” value was -0.0975.
Regarding AAATTGAC, the “PBM E-score” value turned out to be 0.0873.
Under CCTTTTAG stands -0.196; under ATATATAA, 0.194; under ATGTCTCA, -0.224.
Consider CCCGTATA, for which the “PBM E-score” value stood at 0.195.
Under CTGCTGGC stands -0.124.
Under AAATATTT stands -0.0738.
Under ACCGTCCG stands 0.317; under CCACTCTA, -0.147; under GACACTCA, 0.0419.
With AATTTTCA, the “PBM E-score” value was -0.105.
Under ACAGCTTG stands -0.235; under ACTCCACT, -0.23.
As to CTGCCAGA, the “PBM E-score” value was -0.09.
Under CTTTCACC stands 0.273; under TAATGCGA, 0.0246.
Under CGCAGCTA stands 0.281.
Under ATATACCG stands 0.34.
For the sequence AGTACACC, the “PBM E-score” value was -0.013.
Under CCTAAGCC stands 0.0181.
Under CAAACCAG stands -0.206; under CCCGAACC, 0.144.
For GGTAACAC, the “PBM E-score” value came out at 0.111.
Under CAGTGGTC stands -0.143; under CCGGTGCG, 0.314.
Under GGTCCTGA stands -0.0742; under CAGTCACG, -0.06; under CCTTATAC, -0.156.
Under CCTGGTAG stands -0.154.
As for CACACGCA, the “PBM E-score” value was -0.206.
Under CACACCGG stands 0.327; under GTTACGAA, -0.115; under ACGTGCAA, -0.134.
Under GAAACCAC stands -0.0862; under CAGCCCGC, 0.141; under CAAACACG, -0.114.
Under GACTAGAC stands -0.181; under GCCGTTCC, 0.202.
On to TGCGCTAA, for which the “PBM E-score” value is 0.0986.
Under ATTGGCAG stands -0.0617; under CAGCAAAG, -0.103; under TATCTTGA, -0.0906.
On to ACGCTGCC, for which the “PBM E-score” value was -0.0282.
Under GTCTCGAA stands -0.238; under AGTCTCTC, -0.239.
Take AAACAATA: the “PBM E-score” value amounted to 0.0798.
Under CTGTAAGC stands -0.131.
Under CTGTGGAA stands -0.104; under CAAGATCG, -0.018.
Under GGTGCATA stands 0.0547.
With GCTAATCC, the “PBM E-score” value stood at 0.145.
Take CACTGGGC: the “PBM E-score” value was -0.0629.
Under ATGTAATA stands 0.099.
Take GCGGACCA: the “PBM E-score” value was 0.293.
Under TTGAGAAA stands 0.0733; under CTTGAACA, -0.0254; under CAAGAGCC, 0.109.
For AACGTCGC, the “PBM E-score” value was -0.101.
Under AAGCCGGA stands 0.299.
For AATCCGGT, the “PBM E-score” value came to 0.321.
For CGATGGCG, the “PBM E-score” value came out at 0.129.
Under CAGGGGAC stands -0.0333.
Under ACCTCCCG stands 0.0591; under TATCTGCA, -0.21.
Take AAATTCTT: the “PBM E-score” value was -0.172.
For TACAAGGA, the “PBM E-score” value was -0.119.
Under GGCTCCTA stands -0.106.
Under CTTCACCC stands 0.0526; under GTCACGCA, -0.165; under ACCACCGG, 0.406.
Turning to CACCACTC, the “PBM E-score” value was -0.0301.
Under ACTCACTC stands -0.139; under CAGCAAGC, -0.34; under AATTGAAC, -0.00222.
Under GAGCCCCA stands -0.0804.
With AGCGGCAA, the “PBM E-score” value came to 0.2.
Under ACTATAGA stands -0.0232.
Under CCATACAG stands -0.233.
As for ACCCCTGG, the “PBM E-score” value was -0.15.
